# The full ranking holds about 2,900 compounds; the median of “NF-kB SEAP reporter activity, fold change vs agonist alone” is about 0.99, and the highest 2% start at about 2.6. This is one part of the list.
# Tests used:
# RAW-Dual [1] = test: NF-kB SEAP reporter activity, fold change vs agonist alone; cytotoxicity flag (confluency mask): not cytotoxic; higher = enhanced NF-kB activity
# Outline: (§1)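 RAW-Dual macrophages (50,000 cells/well in DMEM, 384-well plates) received 50 nL of library stock by pin tool, then a PRR agonist 1 h later, and were kept at 37 °C, 5% CO2. After 20 hours, supernatant was read for IRF by QuantiLuc luminescence and for NF-κB by QuantiBlue absorbance at 620 nm. Reporter activity is fold change over agonist-alone wells. Cytotoxic wells had IncuCyte confluency below 70% of agonist controls in both mask sets.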
# RAW-Dual [2] = test: NF-kB SEAP reporter activity, fold change vs agonist alone; higher = enhanced NF-kB activity
# Outline: as §1
# RAW-Dual [3] = test: NF-kB SEAP reporter activity, fold change vs agonist alone; cytotoxicity flag (confluency mask): cytotoxic (confluency <70% of control); higher = enhanced NF-kB activity
# Outline: as §1
# [4] = agonist: ODN 1826 (TLR9) 0.5 ug/mL
# [5] = agonist: Pam2CSK4 (TLR2/6) 0.1 ug/mL
# [6] = agonist: Pam3CSK4 (TLR2/1) 0.1 ug/mL
# [7] = library stock concentration (final ~1000-fold dilution): 10 mM, cytotoxicity flag (confluency mask): not cytotoxic, agonist: Imiquimod (TLR7) […]
# [8] = library stock concentration (final ~1000-fold dilution): 10 mM, cytotoxicity flag (confluency mask): not cytotoxic, agonist: MPLA (TLR4) […]
structure (smiles),measurement,setting,value
CC(C)N(CCCNC(=O)Nc1ccc(C(C)(C)C)cc1)CC1OC(n2cc(Br)c3c(N)ncnc32)C(O)C1O (stereo not drawn) (library stock concentration (final ~1000-fold dilution): 10 mM),NF-kB SEAP reporter activity,RAW-Dual [1]; agonist: LPS (TLR4) 0.1 ug/mL,1.08
same,NF-kB SEAP reporter activity,RAW-Dual [1]; [4],0.63
same,NF-kB SEAP reporter activity,RAW-Dual [1]; [5],1.01
same,NF-kB SEAP reporter activity,RAW-Dual [1]; [6],0.996
CC(C)N(CCCNC(=O)Nc1ccc(C(C)(C)C)cc1)CC1OC(n2cc(Br)c3c(N)ncnc32)C(O)C1O (stereo not drawn),NF-kB SEAP reporter activity,RAW-Dual [2]; [7],1.18
same,NF-kB SEAP reporter activity,RAW-Dual [2]; [8],1.39
CC(C)(C(=O)c1cccnc1)c1cccnc1,NF-kB SEAP reporter activity,RAW-Dual [2]; [8],1.01
CC(C)(C(=O)c1cccnc1)c1cccnc1 (library stock concentration (final ~1000-fold dilution): 10 mM),NF-kB SEAP reporter activity,RAW-Dual [1]; agonist: LPS (TLR4) 0.1 ug/mL,1.07
same,NF-kB SEAP reporter activity,RAW-Dual [1]; [4],0.974
same,NF-kB SEAP reporter activity,RAW-Dual [1]; [5],1.08
same,NF-kB SEAP reporter activity,RAW-Dual [1]; [6],1.08
O=C(Cc1ccc(-c2ccc(OCCN3CCOCC3)cc2)cn1)NCc1ccccc1 (library stock concentration (final ~1000-fold dilution): 10 mM),NF-kB SEAP reporter activity,RAW-Dual [1]; agonist: LPS (TLR4) 0.1 ug/mL,4.55
same,NF-kB SEAP reporter activity,RAW-Dual [1]; [4],3.36
O=C(Cc1ccc(-c2ccc(OCCN3CCOCC3)cc2)cn1)NCc1ccccc1,NF-kB SEAP reporter activity,RAW-Dual [2]; [7],2.63
O=C(NOCCO)c1ccc2cncn2c1Nc1ccc(I)cc1F (library stock concentration (final ~1000-fold dilution): 10 mM),NF-kB SEAP reporter activity,RAW-Dual [1]; agonist: LPS (TLR4) 0.1 ug/mL,0.178
same,NF-kB SEAP reporter activity,RAW-Dual [1]; [4],0.3
same,NF-kB SEAP reporter activity,RAW-Dual [1]; [5],0.0594
same,NF-kB SEAP reporter activity,RAW-Dual [1]; [6],0.121
O=C(NOCCO)c1ccc2cncn2c1Nc1ccc(I)cc1F,NF-kB SEAP reporter activity,RAW-Dual [2]; [7],0.121
same,NF-kB SEAP reporter activity,RAW-Dual [2]; [8],0.192
CCOc1cc(C(=O)N2CCC(N3CCN(C)CC3)CC2)ccc1Nc1ncc2c(n1)N(C1CCCC1)c1ccccc1C(=O)N2C (library stock concentration (final ~1000-fold dilution): 10 mM),NF-kB SEAP reporter activity,RAW-Dual [3]; agonist: LPS (TLR4) 0.1 ug/mL,5.49
same,NF-kB SEAP reporter activity,RAW-Dual [3]; [4],1.31
same,NF-kB SEAP reporter activity,RAW-Dual [3]; [5],1.36
same,NF-kB SEAP reporter activity,RAW-Dual [3]; [6],3.42
CCOc1cc(C(=O)N2CCC(N3CCN(C)CC3)CC2)ccc1Nc1ncc2c(n1)N(C1CCCC1)c1ccccc1C(=O)N2C,NF-kB SEAP reporter activity,"RAW-Dual [2]; library stock concentration (final ~1000-fold dilution): 10 mM, cytotoxicity flag (confluency mask): cytotoxic (confluency <70% of control), agonist: Imiquimod (TLR7) […]",1.44
same,NF-kB SEAP reporter activity,"RAW-Dual [2]; library stock concentration (final ~1000-fold dilution): 10 mM, cytotoxicity flag (confluency mask): cytotoxic (confluency <70% of control), agonist: MPLA (TLR4) […]",2.71
O=c1cc(-c2ccc(O)c(O)c2)oc2cc(O)cc(O)c12,NF-kB SEAP reporter activity,RAW-Dual [2]; [7],1.46
same,NF-kB SEAP reporter activity,RAW-Dual [2]; [8],1.33
O=c1cc(-c2ccc(O)c(O)c2)oc2cc(O)cc(O)c12 (library stock concentration (final ~1000-fold dilution): 10 mM),NF-kB SEAP reporter activity,RAW-Dual [1]; agonist: LPS (TLR4) 0.1 ug/mL,1.09
same,NF-kB SEAP reporter activity,RAW-Dual [1]; [4],0.9
same,NF-kB SEAP reporter activity,RAW-Dual [1]; [5],1.52
same,NF-kB SEAP reporter activity,RAW-Dual [1]; [6],0.881
CCC1C(COc2nccc3cc(C(N)=O)c(OC)cc23)NC(=O)C1F (stereo not drawn) (library stock concentration (final ~1000-fold dilution): .1 mM),NF-kB SEAP reporter activity,RAW-Dual [1]; agonist: LPS (TLR4) 0.1 ug/mL,0.475
same,NF-kB SEAP reporter activity,RAW-Dual [1]; [4],0.244
same,NF-kB SEAP reporter activity,RAW-Dual [1]; [5],0.151
same,NF-kB SEAP reporter activity,RAW-Dual [1]; [6],0.199
CCC1C(COc2nccc3cc(C(N)=O)c(OC)cc23)NC(=O)C1F (stereo not drawn),NF-kB SEAP reporter activity,"RAW-Dual [2]; library stock concentration (final ~1000-fold dilution): .1 mM, cytotoxicity flag (confluency mask): not cytotoxic, agonist: Imiquimod (TLR7) […]",0.22
same,NF-kB SEAP reporter activity,"RAW-Dual [2]; library stock concentration (final ~1000-fold dilution): .1 mM, cytotoxicity flag (confluency mask): not cytotoxic, agonist: MPLA (TLR4) […]",0.617
Cc1cc(Nc2ccc(NC(=O)c3ccc(Nc4ccnc5ccccc45)cc3)cc2)nc(N)n1,NF-kB SEAP reporter activity,RAW-Dual [2]; [7],1.31
same,NF-kB SEAP reporter activity,RAW-Dual [2]; [8],2.36
Cc1cc(Nc2ccc(NC(=O)c3ccc(Nc4ccnc5ccccc45)cc3)cc2)nc(N)n1 (library stock concentration (final ~1000-fold dilution): 10 mM),NF-kB SEAP reporter activity,RAW-Dual [1]; agonist: LPS (TLR4) 0.1 ug/mL,2.34
same,NF-kB SEAP reporter activity,RAW-Dual [1]; [4],0.228
same,NF-kB SEAP reporter activity,RAW-Dual [1]; [5],0.856
same,NF-kB SEAP reporter activity,RAW-Dual [1]; [6],1.34
CCOc1nc2cccc(C(=O)OCc3oc(=O)oc3C)c2n1Cc1ccc(-c2ccccc2-c2nc(=O)o[nH]2)cc1 (library stock concentration (final ~1000-fold dilution): 10 mM),NF-kB SEAP reporter activity,RAW-Dual [1]; agonist: LPS (TLR4) 0.1 ug/mL,1.22
same,NF-kB SEAP reporter activity,RAW-Dual [1]; [4],0.903
same,NF-kB SEAP reporter activity,RAW-Dual [1]; [5],1.22
same,NF-kB SEAP reporter activity,RAW-Dual [1]; [6],0.941

# Source: the supplement of paper PMC10037445
